Experimental data taken from the supplement of paper PMC10338343.
± gives the standard deviation. This is a selection; strong and weak results do not stand in their true shares.

System: MIWI (PIWIL1) piRISC loaded with L1MC piRNA (30 nt)
Assay: pre-steady-state target cleavage rate (min^-1); MIWI and MILI are mouse PIWI proteins and EfPiwi is from a freshwater sponge; tags in brackets are library labels; higher = faster piRNA-guided slicing of the target
Details: guide: L1MC piRNA 5'p-UAACUAAAUACUAUGCAAGCUGUAGGUCCU
In short: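 The pre-steady-state cleavage rate was derived from a burst-and-steady-state fit of Cleave-'n-Seq data. For these assays, 1 nM active affinity-purified piRISC loaded with a single synthetic guide was mixed with […] a transcribed, DNA-blocked target RNA library in HEPES–potassium acetate buffer at 33 °C, with or without 500 nM GTSF1 partner protein, for 0–8 or 0–960 min. Sequencing counts of uncleaved targets were normalised to depth and to weakly complementary targets, and k3 was capped at 0.0001 min^-1 after three trials were pooled.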

[1] = auxiliary factor: 500 nM mouse GTSF1
[2] = auxiliary factor: none (no GTSF1)
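Also: 1 nM active piRISC with 0.1 nM target library at 33 °C single turnover.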

| Sequence | pre-steady-state target cleavage rate [1] | pre-steady-state target cleavage rate [2] |
| --- | --- | --- |
| UCCUCCUACAGCUUGCAUAGAUUUUAGUUA | 0.156 ± 0.022 | 0.00498 ± 0.0021 |
| UCCUGCUACAGCUUGCAUAGUAUUUACAUA | 0.242 ± 0.034 | 0.00933 ± 0.004 |
| UCCUGGAACAGGUUGCAUAGUAAUUAGUUA | 0.567 ± 0.047 | 0.0107 ± 0.003 |
| UCCUCCUACAGCUUGCAUAGUAUAUUGUUA | 0.368 ± 0.033 | 0.0145 ± 0.0039 |
| AGGUCCUACUGCUUGCAUAGUAUUUAGUUA | 1.12 ± 0.038 | 0.0889 ± 0.015 |
| GGGACCUACAGCUUGCAUAGUAUUUAGUUA | 1.32 ± 0.097 | 0.113 ± 0.025 |
| UCCUGGAUGUGCUUGCAUACUAUUUACUUA | 0.0599 ± 0.014 | 0.00974 ± 0.0027 |
| UCCUGGAUGUGCUUGCAAAGUAUUUAGUAA | 0.0608 ± 0.0086 | 0.0105 ± 0.0037 |
| AGGAGCUACAGCUUGCAUAGUAUUUAGUAA | 1.02 ± 0.092 | 0.0616 ± 0.012 |
| UCCUGGAUGUGCUUCGCAUAGUAUUUAGUUA | 0.147 ± 0.022 | 0.00765 ± 0.0033 |
| UCCUGGAUGAGCAUGCAUACUAUUUAGUUA | 0.136 ± 0.019 | 0.00797 ± 0.0031 |
| AGGACCUACAGCUUGCAUAGUAAAAAGUUA | 0.489 ± 0.058 | 0.00574 ± 0.0034 |
| UCGUCCUACAGCUUGCAUAGUAUUUACAAA | 0.362 ± 0.038 | 0.00463 ± 0.002 |
| UCCUGGUACAGCCUUGCAUAGUAUUUAGUUA | 0.594 ± 0.049 | 0.0422 ± 0.0091 |
| UCCACCUUCAGCUUGCAUUGUAUUUAGUUA | 0.879 ± 0.025 | 0.0245 ± 0.0059 |
| UCCUGGAUGUCCUCGCAUAGUAUUUAGUUA | 0.0152 ± 0.0041 | 0.0054 ± 0.0019 |
| UCCUGGAUGAGCUUGCAUAGUAUAUACUUA | 0.0169 ± 0.008 | 0.00397 ± 0.0027 |
| UCGACCUACCGCUUGCAUAGUAUUUAGUUA | 1.64 ± 0.069 | 0.0745 ± 0.015 |
| UGGACCUACAGCUUGCAUAGUGAUUUAGUUA | 0.0529 ± 0.0082 | 0.00689 ± 0.0023 |
| UCGACCUUCAGCUUGCAUAGUAUUAAGUUA | 0.8 ± 0.044 | 0.0251 ± 0.0052 |

| Sequence | pre-steady-state target cleavage rate [1] | pre-steady-state target cleavage rate [2] |
| --- | --- | --- |
| UCCUGGUACAGCUUGCAAAGUUUUUAGUUA | 0.284 ± 0.029 | 0.0265 ± 0.0081 |
| UGGACGUACAGCUUGCAAAGUAUUUAGUUA | 1.3 ± 0.045 | 0.0558 ± 0.0096 |
| UCCACCUACAGCUUGGAUACUAUUUAGUUA | 0.305 ± 0.026 | 0.0228 ± 0.004 |
| UCCUGGUACAGCUUGCUUAGUUUUUAGUUA | 0.111 ± 0.019 | 0.0344 ± 0.0094 |
| UCCACCUACUGCUUGCAUAGUUUUUAGUUA | 0.236 ± 0.02 | 0.0184 ± 0.0025 |
| UCCACCUACUGCUUGCAUUGUAUUUAGUUA | 0.743 ± 0.025 | 0.0287 ± 0.0065 |
| UCCUGCUACACCUUGCAUAGAAUUUAGUUA | 0.429 ± 0.13 | 0.00545 ± 0.0031 |
| UGGACCUACAGCUUGCAUAGUUAAUAGUUA | 0.0804 ± 0.0098 | 0.00614 ± 0.0024 |
| UCCUGGAUCAGCUUGCAUAGUAUUAAGAUA | 0.265 ± 0.05 | 0.00645 ± 0.0033 |
| UCGACCUACAGCUUGGAUAGUAAUUAGUUA | 0.777 ± 0.035 | 0.0256 ± 0.0059 |
| UCCACCUACAGCUUGCAUAGUAUUUUGAUA | 0.365 ± 0.04 | 0.011 ± 0.0036 |
| UCCUGGAUCAGCAUGCAAAGUAUUUAGUUA | 0.462 ± 0.033 | 0.00887 ± 0.0031 |
| UCCUGGUAGAGCUUGCAAAGUAUUUAGUUA | 0.776 ± 0.035 | 0.0289 ± 0.0077 |
| UCCUGGUACAGCUUGCAUAGUAAUUAGUAA | 0.359 ± 0.049 | 0.00888 ± 0.0027 |
| AGGACCUACAGGUUGCAUAGUAUUUAGAUA | 0.472 ± 0.053 | 0.0379 ± 0.0093 |
| UCCUGGAUCAGCUUGCAUUGAAUUUAGUUA | 0.0553 ± 0.0084 | 0.00619 ± 0.0028 |
| UCCUGGAUGUGCUUGCAUAGAAUUUUGUUA | 0.0118 ± 0.0055 | 0.00328 ± 0.0031 |
| UCCUCCAACAGCUUGCAAAGUAUUUAGUUA | 1.16 ± 0.043 | 0.0397 ± 0.0099 |
| UCCUGGAACAGCUUGCAUAGUAUUUAGUAA | 0.685 ± 0.046 | 0.0337 ± 0.0083 |
| UCCUGCUACAGCUUGCAUAGUUUUAAGUUA | 0.186 ± 0.022 | 0.0109 ± 0.0039 |

| Sequence | pre-steady-state target cleavage rate [1] | pre-steady-state target cleavage rate [2] |
| --- | --- | --- |
| AGGUCCAACAGCUUGCAUAGUAUUUAGUUA | 1.5 ± 0.04 | 0.0907 ± 0.014 |
| UCCUGCUUGUGCUUGCAUAGUAUUUACAAA | 0.0637 ± 0.014 | 0.00366 ± 0.0024 |
| UCCUCCUACAGCUUGCAUAGUAUCUUAGUUA | 0.96 ± 0.045 | 0.016 ± 0.0044 |
| UCCUCCUACAGGUUGCAUAGUAUUUAGAUA | 0.346 ± 0.044 | 0.00751 ± 0.0014 |
| AGCACCUACAGCUUGCAUAGUAUUUAGUAA | 0.974 ± 0.12 | 0.197 ± 0.062 |
| UCGUCCUACAGCUUGCAUAGUAUUUAGAUA | 0.43 ± 0.029 | 0.0226 ± 0.0051 |
| UCCACGAACAGCUUGCAUAGUAUUUACAAA | 0.324 ± 0.044 | 0.00348 ± 0.0024 |
| UCCUGGUACACCUUGCAUAGUAUAUAGUUA | 0.555 ± 0.09 | 0.00685 ± 0.0027 |
| UCCUCCUACAGCUUCGCAUAGUAUUUAGUUA | 1.08 ± 0.039 | 0.00906 ± 0.0025 |
| UCCUGGAACAGCUUGCAUACUAUUAAGUUA | 0.124 ± 0.021 | 0.00995 ± 0.0032 |
| UCCUCCUACAGGUUGCUUAGUAUUUAGUUA | 1.17 ± 0.072 | 0.0114 ± 0.0023 |
| UGCUCCUACAGCUUGCAUAGUAUUUACAAA | 0.331 ± 0.047 | 0.00421 ± 0.0024 |
| AGGACCUACAGCUUGCAUAGUAUUUACUUA | 0.41 ± 0.043 | 0.0548 ± 0.011 |
| UCCUGCUACAGCUUGCAUAGUUAUUAGUUA | 0.142 ± 0.022 | 0.0149 ± 0.0035 |
| UCCUCCUACAGCUUGCAUACUAUAUAGUUA | 0.198 ± 0.021 | 0.0096 ± 0.0023 |
| UGGACCUACAGCUUGCAUAGUAUUUAGUAA | 1.11 ± 0.064 | 0.0627 ± 0.014 |
| UCGGCCUACAGCUUGCAUAGUAUUUAGUUA | 1.21 ± 0.05 | 0.0767 ± 0.015 |
| UGGACCUACAGCUUGCAUACUAUUUAGUAA | 0.127 ± 0.018 | 0.0142 ± 0.0041 |
| UCCUGGAUGUGCUAGCAUUGUAUUUAGUUA | 0.00699 ± 0.0027 | 0.00416 ± 0.0027 |
| UGGACCUACAGCUUGCAAAGAAUUUAGUUA | 0.256 ± 0.017 | 0.0112 ± 0.0043 |
